For this assay, the target named is recombinant human TNFα (RDI) (human, UniProt P01375 partial chain). Briefly: ELISA: wells coated with recombinant human TNFα 1 ug/mL, conditioned medium with 1 mM benzamidine, detection with anti-myc-HRP and TMB, OD 370 nm, triplicates.
UniProt P01375, sequence (P01375 77-233 limits assumed): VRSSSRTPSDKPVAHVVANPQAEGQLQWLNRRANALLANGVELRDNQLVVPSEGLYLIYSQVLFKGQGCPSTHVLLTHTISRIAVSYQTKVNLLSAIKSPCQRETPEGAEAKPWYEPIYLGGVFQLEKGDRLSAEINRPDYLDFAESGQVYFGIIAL

B1: Trypsinogen-myc-his (human cationic trypsinogen, tgn, expressed from pSecTag2A) (enzyme)
chain: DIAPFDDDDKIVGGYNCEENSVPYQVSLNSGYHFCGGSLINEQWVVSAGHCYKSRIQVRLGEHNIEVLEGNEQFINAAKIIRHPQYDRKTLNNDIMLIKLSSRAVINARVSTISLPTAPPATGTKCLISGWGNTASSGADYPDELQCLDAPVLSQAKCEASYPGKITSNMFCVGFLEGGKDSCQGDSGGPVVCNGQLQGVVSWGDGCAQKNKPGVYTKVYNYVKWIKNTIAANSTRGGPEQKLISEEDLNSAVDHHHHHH
Take B1: the binding result is recorded as “no binding”.

The values above are taken from patent publication US20050074865A1 (COMPOUND THERAPEUTICS, published 2005).
